± gives the standard deviation of the averaged measurements. Whole data set: some 33,000 sequences, median “E-score (dimensionless, -0.5 to 0.5)” near -0.049, cut for the highest 2% near 0.37. The list shows a part of the results.
system: T1, PmTbr T-box DNA-binding domain (GST fusion); experiment: PBM E-score of 8-mer (E-score (dimensionless, -0.5 to 0.5)); Tbr is Tbrain of the sea star Patiria miniata (Pm) or the sea urchin Strongylocentrotus purpuratus (Sp); higher = stronger binding preference; most listed sequences are background and not binding sites; conditions: the construct has about 5 more residues each side
T1 sequence: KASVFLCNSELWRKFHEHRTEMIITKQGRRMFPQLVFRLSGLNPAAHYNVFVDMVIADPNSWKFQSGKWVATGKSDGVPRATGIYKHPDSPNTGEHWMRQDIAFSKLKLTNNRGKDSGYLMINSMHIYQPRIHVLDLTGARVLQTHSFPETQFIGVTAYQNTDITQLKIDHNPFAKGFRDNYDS
Experimental: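 Universal protein-binding microarray (Agilent AMADID 016060, 60-bp probes with a 35-bp variable region) incubated with 200 nM GST-fused Patiria miniata Tbr T-box DNA-binding domain (residues 272-466) in PBS pH 7.5. Scored for every ungapped 8-mer (given with its reverse complement) by the Universal PBM Analysis Suite as E-score (modified Wilcoxon-Mann-Whitney enrichment, range -0.5 to 0.5; >0.45 counts as bound) and Z-score of median probe intensity. Two replicate arrays (datasets 1 and 2).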
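Note: 200 nM protein in PBS on universal arrays averaged over duplicate arrays.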

Sequence	PBM E-score of 8-mer
GCGGAAAC	0.107 ± 0.023
ATACCATC	-0.234 ± 0.068
CCTTGTTA	0.126 ± 0.011
ATCTGATG	-0.119 ± 0.0066
GTATCTAA	-0.138 ± 0.028
GAACATAC	-0.0947 ± 0.0069
ACAAAAAC	0.0645 ± 0.095
GGCAACAC	0.38 ± 0.0047
AGGCAGTA	-0.128 ± 0.0066
TAACGAAA	-0.0105 ± 0.087
TCCGTACA	-0.207 ± 0.008
GACTACAA	-0.133 ± 0.02
ACGAGCGA	0.0487 ± 0.042
GAATGGCA	0.00346 ± 0.0012
CAGGAGGA	-0.126 ± 0.0036
CGCAGATA	-0.0245 ± 0.036
ATCTCGAC	-0.0257 ± 0.043
AAATTTAC	0.1 ± 0.031
GAAAAACC	0.112 ± 0.065
CTCGGTGC	-0.0448 ± 0.12
CGCACTGC	0.0715 ± 0.075
AAGCGGGG	-0.255 ± 0.0093
CGTTTAAG	-0.081 ± 0.081
ACGCAGGG	0.022 ± 0.024
AACCATCG	-0.0291 ± 0.073

Sequence	PBM E-score of 8-mer
AGCTCAGC	-0.0662 ± 0.065
GGTACCGA	0.0175 ± 0.024
CACAGCTG	0.296 ± 0.0054
CTCACGGC	0.079 ± 0.024
ATTGTACC	-0.1948 ± 0.0018
TACGCCGA	-0.22 ± 0.099
GGCACTTA	0.309 ± 0.045
AAATAGGG	-0.0426 ± 0.12
AGTCTTAG	-0.0345 ± 0.08
CAGTTAGG	-0.0835 ± 0.0084
ACCTTGAG	0.132 ± 0.033
ACCAGGGT	0.0951 ± 0.014
CAGAATGG	-0.0745 ± 0.015
GGGTAAAC	0.0588 ± 0.025
GAACAGTA	-0.0332 ± 0.032
CCGGCCCC	-0.24 ± 0.058
GTTATACA	0.0491 ± 0.056
AACTGTAC	-0.0664 ± 0.015
GTGAATCA	0.0963 ± 0.0088
AGCGAATA	0.0489 ± 0.053
CTGATGTA	-0.109 ± 0.032
TCAATGCA	-0.268 ± 0.037
AAATGTGT	0.432 ± 0.011
AGACGTCT	-0.325 ± 0.059
AGTTCGAG	0.0334 ± 0.076

Sequence	PBM E-score of 8-mer
AAATTCAC	0.263 ± 0.021
CACCGAAG	0.0253 ± 0.032
ATGATCCC	-0.257 ± 0.033
GATAAATA	-0.0627 ± 0.026
GGCTAAAC	-0.21 ± 0.0053
TGGTTGAA	-0.15 ± 0.054
GGGCGCAA	0.0355 ± 0.036
GGATTATA	-0.0412 ± 0.053
AACGTCAC	0.242 ± 0.0035
ATCATGCG	0.0708 ± 0.073
CGCAAGGC	0.111 ± 0.11
ATCCTACA	-0.198 ± 0.0028
CGGAGCAC	-0.0608 ± 0.012
ACGGGGAG	0.0327 ± 0.077
CGTAACAG	0.0681 ± 0.0039
ATTCAAAG	-0.157 ± 0.0024
CGCGGGTC	0.111 ± 0.12
CAACGACA	0.208 ± 0.018
CCTTAGTA	-0.208 ± 0.024
CAGACCTA	-0.199 ± 0.026
AACTCCGC	-0.137 ± 0.032
CTCGAAAA	-0.0769 ± 0.076
CAAAAACG	-0.0281 ± 0.015
CAACCAAG	-0.22 ± 0.013
CGGGGGCA	-0.118 ± 0.011

Sequence	PBM E-score of 8-mer
GAACGATA	-0.0973 ± 0.061
ACATGAGC	0.0181 ± 0.055
GACGAATC	0.149 ± 0.019
AGTAACAG	0.037 ± 0.085
CGCTCATA	-0.08565 ± 0.00083
AGATACCC	-0.222 ± 0.034
AAGCCCGG	-0.201 ± 0.055
AAACCCTA	-0.0441 ± 0.018
CAGACCCC	-0.263 ± 0.04
ACCTCTGG	0.0994 ± 0.077
ACAAATCA	0.0922 ± 0.014
AGAGATGG	-0.145 ± 0.0083
GTGATAAC	0.406 ± 0.02
TAGAGAGA	-0.136 ± 0.021
CCCCAGGG	0.00916 ± 0.067
GGATCACA	0.144 ± 0.042
GCGTCGCC	0.203 ± 0.033
CAATTGCC	0.0195 ± 0.0026
CACCGCCA	0.212 ± 0.066
CTCCAACC	-0.114 ± 0.032
ATGCCCAC	-0.186 ± 0.051
CGGTTCTA	-0.0969 ± 0.012
CCAGGGAA	-0.178 ± 0.0092
GTGTCACA	0.445 ± 0.0066
ACGTTACC	0.087 ± 0.0036

Sequence	PBM E-score of 8-mer
TGGGTTAA	-0.0374 ± 0.029
CGATGGGA	-0.227 ± 0.027
ACACCTGG	0.466 ± 0.0053
GAAGGTCC	-0.1794 ± 0.0013
ATGGTTCG	0.0805 ± 0.036
GGTCAATA	-0.248 ± 0.017
ACGTACAG	0.0624 ± 0.034
ACGACGCG	0.0983 ± 0.016
GCAGCAGC	-0.12 ± 0.037
GCACATCA	0.167 ± 0.025
TAGACTAA	-0.192 ± 0.036
AGGAGATG	-0.0689 ± 0.011
CACTGTGG	-0.16 ± 0.098
GGGCCAAA	-0.228 ± 0.029
CGTTGATA	-0.00624 ± 0.082
GTTCCAGA	-0.137 ± 0.04
ATTCAATC	-0.115 ± 0.015
CCGGAAGA	0.0589 ± 0.037
AGTAAGGC	-0.0738 ± 0.026
GAGTTGGC	0.144 ± 0.048
CCCCAATA	-0.143 ± 0.0024
AAACCATC	-0.0959 ± 0.018
AACCGACG	-0.0139 ± 0.077
AGTTCTAA	-0.122 ± 0.041
AGTGACTC	-0.0798 ± 0.00094

Sequence	PBM E-score of 8-mer
ACCACGCA	-0.0762 ± 0.045
CATACGCC	-0.101 ± 0.066
CTAGTGTC	0.239 ± 0.028
AATTAATT	0.114 ± 0.023
AGGACGTG	0.188 ± 0.013
GTTCTCGA	0.0595 ± 0.038
AGGCCCCC	-0.332 ± 0.014
GTTCGATA	-0.172 ± 0.02
TAAGTCGA	0.072 ± 0.01
ATCCGGGC	-0.232 ± 0.081
AATCCCCG	0.00787 ± 0.01
AAAGGTCC	0.011 ± 0.046
AGAGAGTG	0.181 ± 0.014
ACCTTGGA	0.163 ± 0.014
CTGGATAA	-0.277 ± 0.12
GCTTTTTA	0.0226 ± 0.011
ACTTATGA	-0.0342 ± 0.025
ACGTGAGA	0.349 ± 0.0086
ACCTCCAG	0.045 ± 0.12
CGACAGGC	0.147 ± 0.021
ACGGGTAG	-0.0399 ± 0.058
ATGTACGA	-0.16 ± 0.11
CAGGAACG	0.0653 ± 0.082
AAAAGCGT	0.158 ± 0.03
AAGCTATC	-0.0115 ± 0.049

Sequence	PBM E-score of 8-mer
GCCATGAC	-0.174 ± 0.022
GTAATTCA	-0.105 ± 0.0081
CTGAGAGA	-0.0217 ± 0.023
ATCAGTGC	0.0179 ± 0.007
GTAACCGA	-0.0185 ± 0.015
ATGAAGTG	0.257 ± 0.023
CATCTTGC	0.0758 ± 0.065
ACCGCAAT	-0.163 ± 0.02
CCACAGCA	-0.0937 ± 0.059
AGCGTAAA	-0.209 ± 0.049
CAAAAATC	0.0131 ± 0.062
ATGCTAAA	-0.00788 ± 0.027
AACACGCG	0.231 ± 0.01
AAAATTTG	-0.166 ± 0.14
GGTGCGTA	0.2616 ± 0.00075
ATGGTGTA	0.104 ± 0.021
GGAGCACA	-0.215 ± 0.046
AGCGCTCC	-0.215 ± 0.0042
GCGGATCA	0.0406 ± 0.016
TCTCACCA	0.372 ± 0.011
CATATGCC	-0.0326 ± 0.037
ATTTGCCA	0.127 ± 0.041

Source: the supplement of paper PMC4166925
